Experimental data from paper PMC5700166.
This is a selection; strong and weak results do not stand in their true shares. The list includes weakly bound sequences.

Assays:
Assay in all cases: protein-binding microarray (PBM)
Settings in all cases: PBM: ~300 nM protein, 6 mM HEPES pH 7.8, 80 mM KCl, 0.5 mM EDTA, 0.5 mM EGTA, 6% glycerol, 35 ng/ul poly-dIdC, 1% milk, 1 h, room temperature; Ap Aiptasia and Nv Nematostella (sea anemones) / Co Capsaspora / Aq Amphimedon (sponge) / Dm Drosophila / Hu human; RHD is the Rel homology domain; high values mean tight binding; most listed sequences are background and not binding sites; double strand, one strand shown
GST-Ap-NF-kB RHD = biological target: T1, GST-Ap-NF-kB RHD (UniProt A0A913YAJ5)
T1 sequence: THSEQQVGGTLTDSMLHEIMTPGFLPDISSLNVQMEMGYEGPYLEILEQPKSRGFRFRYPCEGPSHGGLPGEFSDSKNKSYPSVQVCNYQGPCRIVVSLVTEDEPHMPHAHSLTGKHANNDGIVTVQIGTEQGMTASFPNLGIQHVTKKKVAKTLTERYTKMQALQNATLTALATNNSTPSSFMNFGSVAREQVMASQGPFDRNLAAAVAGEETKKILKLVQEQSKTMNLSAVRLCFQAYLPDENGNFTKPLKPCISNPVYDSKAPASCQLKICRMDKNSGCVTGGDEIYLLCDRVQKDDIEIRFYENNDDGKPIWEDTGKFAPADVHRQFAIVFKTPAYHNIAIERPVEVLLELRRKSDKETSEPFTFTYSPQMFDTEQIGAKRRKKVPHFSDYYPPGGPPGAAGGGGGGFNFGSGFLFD

[1] = biological target: T2, GST-Nv-NF-kB (Cys allele) (UniProt E5G601)
T2 sequence: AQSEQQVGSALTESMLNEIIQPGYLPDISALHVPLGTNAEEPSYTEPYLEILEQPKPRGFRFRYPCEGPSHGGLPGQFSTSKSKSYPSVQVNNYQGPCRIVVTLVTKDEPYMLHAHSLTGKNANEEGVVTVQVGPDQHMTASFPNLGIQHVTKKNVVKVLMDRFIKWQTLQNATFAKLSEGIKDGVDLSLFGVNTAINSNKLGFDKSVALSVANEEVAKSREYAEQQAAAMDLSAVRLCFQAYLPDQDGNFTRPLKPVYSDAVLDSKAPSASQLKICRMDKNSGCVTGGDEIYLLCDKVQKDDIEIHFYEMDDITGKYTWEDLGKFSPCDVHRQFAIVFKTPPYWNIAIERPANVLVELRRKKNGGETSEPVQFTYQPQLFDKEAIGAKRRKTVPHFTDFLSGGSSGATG

GST-Co-NF-kB = biological target: T3, GST-Co-NF-kB (UniProt F1ARL5)
T3 sequence: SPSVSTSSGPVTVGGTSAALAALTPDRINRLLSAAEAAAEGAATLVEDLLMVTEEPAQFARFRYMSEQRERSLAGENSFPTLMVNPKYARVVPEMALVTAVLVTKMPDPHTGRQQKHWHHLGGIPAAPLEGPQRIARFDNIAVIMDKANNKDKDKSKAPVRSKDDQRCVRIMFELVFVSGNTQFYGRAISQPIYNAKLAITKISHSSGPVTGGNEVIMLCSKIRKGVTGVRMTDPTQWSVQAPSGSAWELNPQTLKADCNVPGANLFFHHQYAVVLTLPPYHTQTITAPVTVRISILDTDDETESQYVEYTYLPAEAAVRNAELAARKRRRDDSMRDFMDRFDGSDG

GST-Dm-Relish = biological target: T4, GST-Dm-Relish (UniProt Q94527)
T4 sequence: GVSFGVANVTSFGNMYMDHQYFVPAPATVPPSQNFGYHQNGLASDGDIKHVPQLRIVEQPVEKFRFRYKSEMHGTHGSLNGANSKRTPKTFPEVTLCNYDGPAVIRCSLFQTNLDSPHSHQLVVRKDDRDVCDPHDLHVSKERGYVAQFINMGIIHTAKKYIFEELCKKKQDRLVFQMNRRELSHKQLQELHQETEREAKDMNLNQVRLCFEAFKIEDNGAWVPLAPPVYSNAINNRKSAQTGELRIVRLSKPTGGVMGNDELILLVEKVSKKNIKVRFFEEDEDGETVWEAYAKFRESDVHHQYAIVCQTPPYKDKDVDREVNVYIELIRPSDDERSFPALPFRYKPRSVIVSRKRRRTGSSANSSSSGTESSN

GST-Aq-NF-kB = biological target: T5, GST-Aq-NF-kB (UniProt A9Y5G7)
T5 sequence: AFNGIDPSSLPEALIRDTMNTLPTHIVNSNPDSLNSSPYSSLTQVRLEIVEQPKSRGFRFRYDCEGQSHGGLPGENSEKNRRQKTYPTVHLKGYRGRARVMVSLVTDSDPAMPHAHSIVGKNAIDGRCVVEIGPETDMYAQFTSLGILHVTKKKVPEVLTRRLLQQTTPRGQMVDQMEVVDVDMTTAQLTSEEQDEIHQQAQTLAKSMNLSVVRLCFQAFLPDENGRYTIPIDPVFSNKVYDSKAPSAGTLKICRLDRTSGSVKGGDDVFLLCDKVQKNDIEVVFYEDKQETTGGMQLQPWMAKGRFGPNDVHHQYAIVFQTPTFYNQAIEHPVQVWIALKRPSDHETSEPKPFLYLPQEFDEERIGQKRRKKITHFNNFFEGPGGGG

Row | Sequence | binding signal (GST-Ap-NF-kB RHD) | binding signal [1] | binding signal (GST-Co-NF-kB) | binding signal (GST-Dm-Relish) | binding signal (GST-Aq-NF-kB)
1 | CCGATTAACATCACGTTAATTCCTGATGTTAATCGGGTCTTGATTCGCTTGACGCTGCTG | -0.131 z-score | -0.337 z-score | 0.112 z-score | 0.601 z-score | 0.397 z-score
2 | CCGATTAACATCAACGGATTTTCTGATGTTAATCGGGTCTTGATTCGCTTGACGCTGCTG | 0.226 z-score | 0.117 z-score | 0.248 z-score | 0.424 z-score | 0.478 z-score
3 | CCGATTAACATCACGCATACGTATGATGTTAATCGGGTCTTGATTCGCTTGACGCTGCTG | -1.3 z-score | -0.198 z-score | -0.236 z-score | -0.25 z-score | -0.473 z-score
4 | CCGATTAACATCAGTCTGTCAATTGATGTTAATCGGGTCTTGATTCGCTTGACGCTGCTG | -0.877 z-score | 0.101 z-score | -0.257 z-score | -1.13 z-score | -0.901 z-score
5 | CCGATTAACATCATGGACCTTTCTGATGTTAATCGGGTCTTGATTCGCTTGACGCTGCTG | -0.605 z-score | 0.0211 z-score | -0.0945 z-score | -0.344 z-score | 0.00534 z-score
6 | CCGATTAACATCAGAAGTCATACTGATGTTAATCGGGTCTTGATTCGCTTGACGCTGCTG | -0.335 z-score | -1.14 z-score | -0.439 z-score | -1.08 z-score | -0.664 z-score
7 | CCGATTAACATCAAGTCTGCGATTGATGTTAATCGGGTCTTGATTCGCTTGACGCTGCTG | -1.41 z-score | -0.277 z-score | -1.4 z-score | -0.881 z-score | -0.775 z-score
8 | CCGATTAACATCACCCGAGTGCGTGATGTTAATCGGGTCTTGATTCGCTTGACGCTGCTG | 0.736 z-score | -0.521 z-score | 0.856 z-score | 1.01 z-score | 0.119 z-score
9 | CCGATTAACATCATATGAAGTGTTGATGTTAATCGGGTCTTGATTCGCTTGACGCTGCTG | -0.866 z-score | 0.272 z-score | -0.273 z-score | -0.192 z-score | -0.5 z-score
10 | CCGATTAACATCAGAACATGCGTTGATGTTAATCGGGTCTTGATTCGCTTGACGCTGCTG | -0.151 z-score | -0.97 z-score | -0.551 z-score | -0.807 z-score | -0.495 z-score
11 | CCGATTAACATCACGTTGCAAATTGATGTTAATCGGGTCTTGATTCGCTTGACGCTGCTG | -0.221 z-score | -0.531 z-score | -0.468 z-score | -0.36 z-score | -0.15 z-score
12 | CCGATTAACATCAAAATTTCCAATGATGTTAATCGGGTCTTGATTCGCTTGACGCTGCTG | -0.0902 z-score | -0.265 z-score | -0.264 z-score | 0.542 z-score | 0.714 z-score
13 | CCGATTAACATCACAAGGTCACATGATGTTAATCGGGTCTTGATTCGCTTGACGCTGCTG | 0.0276 z-score | 0.0871 z-score | 0.0673 z-score | 0.625 z-score | -0.268 z-score
14 | CCGATTAACATCAGAGATCCATTTGATGTTAATCGGGTCTTGATTCGCTTGACGCTGCTG | -0.806 z-score | -0.851 z-score | -0.63 z-score | -0.797 z-score | -0.458 z-score
15 | CCGATTAACATCAGGAAATCTCCTGATGTTAATCGGGTCTTGATTCGCTTGACGCTGCTG | -0.717 z-score | 0.34 z-score | -1.1 z-score | 0.00386 z-score | 1.25 z-score
16 | CCGATTAACATCAATTATGTGCCTGATGTTAATCGGGTCTTGATTCGCTTGACGCTGCTG | 0.0129 z-score | -0.308 z-score | 0.306 z-score | -0.226 z-score | -0.122 z-score
17 | CCGATTAACATCAGCGGTGATATTGATGTTAATCGGGTCTTGATTCGCTTGACGCTGCTG | 0.841 z-score | 0.199 z-score | 0.291 z-score | 0.577 z-score | 0.248 z-score
18 | CCGATTAACATCAAACATTATCTTGATGTTAATCGGGTCTTGATTCGCTTGACGCTGCTG | -0.485 z-score | -0.348 z-score | 0.26 z-score | 0.0169 z-score | -0.13 z-score
19 | CCGATTAACATCAGATTCTCATCTGATGTTAATCGGGTCTTGATTCGCTTGACGCTGCTG | -1.04 z-score | 0.925 z-score | -1.81 z-score | -0.573 z-score | -0.375 z-score
20 | CCGATTAACATCACTCAACGGAATGATGTTAATCGGGTCTTGATTCGCTTGACGCTGCTG | -0.425 z-score | -1.04 z-score | -0.277 z-score | -0.174 z-score | -0.135 z-score
21 | CCGATTAACATCATGACTTACGCTGATGTTAATCGGGTCTTGATTCGCTTGACGCTGCTG | -0.372 z-score | -0.594 z-score | -0.478 z-score | -0.642 z-score | -0.532 z-score
22 | CCGATTAACATCACATTGTGATCTGATGTTAATCGGGTCTTGATTCGCTTGACGCTGCTG | -0.871 z-score | -0.382 z-score | -0.746 z-score | -0.109 z-score | -0.536 z-score
23 | CCGATTAACATCAGAGCACGCTTTGATGTTAATCGGGTCTTGATTCGCTTGACGCTGCTG | -0.275 z-score | 0.0368 z-score | -0.537 z-score | -0.749 z-score | -0.255 z-score
24 | CCGATTAACATCAGGATATTCCATGATGTTAATCGGGTCTTGATTCGCTTGACGCTGCTG | -0.315 z-score | -0.772 z-score | -0.454 z-score | 0.545 z-score | 0.627 z-score
25 | CCGATTAACATCACTGGGATTGATGATGTTAATCGGGTCTTGATTCGCTTGACGCTGCTG | 0.536 z-score | -0.127 z-score | 0.94 z-score | 0.0851 z-score | 0.274 z-score
26 | CCGATTAACATCATAGTTATTTATGATGTTAATCGGGTCTTGATTCGCTTGACGCTGCTG | -0.594 z-score | -0.255 z-score | 0.0174 z-score | -0.078 z-score | -0.327 z-score
27 | CCGATTAACATCAAGCACAGAGCTGATGTTAATCGGGTCTTGATTCGCTTGACGCTGCTG | -0.369 z-score | -0.431 z-score | -1.14 z-score | -0.693 z-score | -0.868 z-score
28 | CCGATTAACATCACGCGTTTTAGTGATGTTAATCGGGTCTTGATTCGCTTGACGCTGCTG | -0.569 z-score | -0.0559 z-score | -0.336 z-score | 0.762 z-score | -0.62 z-score
